Laboratory results published in PubChem BioAssay AID686970 (National Center for Advancing Translational Sciences (NCATS), 2013).
Hit rate of the full screen: of about 360,000 compounds, about 6,000 (1.7%) were called active. The inconclusive results got no clear call from the source; some entries with a clear call stand among them for comparison. The call rests on the fitted dose curve; in most records, active means well fitted cell-killing curve with a large enough effect; inconclusive means small, poorly fitted or top-dose-only effect, or effect the other way; inactive means flat fitted curve, though single readings scatter. Potencies of inconclusive entries are left out as doubtful fits.

Test: qHTS for induction of synthetic lethality in tumor cells producing 2HG: qHTS for the HT-1080-NT fibrosarcoma cell line;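 further: NT is the 2HG producing partner of a matched IDH1 knockdown line; nearly all actives have a fitted effect of over 55% in size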;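 on activity, negative = less viability: 0% = DMSO-treated cells and -100% = media-only wells without cells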
Conditions: HT-1080-NT fibrosarcoma viability, CellTiter-Glo ATP luminescence, 48 h; activity, negative = less viability: at 46.1 µM (top of the series) unless noted
Procedure, shortened: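 Luminescent CellTiter-Glo readout after 48 hours of compound exposure at 37 degrees C defined viability of HT-1080-NT cells. Activity was normalized to DMSO wells and cell-free media wells; concentration-response curves were fitted and assigned curve classes.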
Potency means the concentration at half of the fitted maximal effect; tags describe the fitted curve by direction and shape.

SMILES | Potency | activity, negative = less viability
CC(=O)Nc1ccc(NC(=O)CSc2n[nH]c(-c3cccs3)n2)cc1 | inactive | –
O=C(NC(c1ccccc1)c1ccc2ccccc2n1)C1CCN(Cc2ccc(Oc3ccccc3)cc2)CC1 (stereo not given) | inconclusive [cytotoxic, single point] | –
CN(c1ccccc1)P(=O)(N(C)c1ccccc1)N(C)c1ccccc1 | inconclusive [cytotoxic, single point] | –
O=C(O)c1ccc(C2CCCCC2)cn1 | inconclusive [cytotoxic, single point] | –
CC(C)Cn1c(SCC(=O)NCc2ccc(Cl)cc2)nnc1-c1cccc(S(=O)(=O)N2CCOCC2)c1 | – | inconclusive: -30.5% [cytotoxic]
N#Cc1nc(Cc2cccc3ccccc23)oc1NCCN1CCOCC1 | inconclusive [cytotoxic, single point] | –
CCC(=O)N1CCN(c2ccc(NC(=O)c3ccc([N+](=O)[O-])o3)cc2Cl)CC1 | active: 11.6 µM | –
Cc1ccc(S(=O)(=O)NC(=O)c2ccccc2C)cc1 | inconclusive [rising, partial curve, poor fit] | –
O=C(c1ccc(C(F)(F)F)cc1)N1CCC(=O)N(C(COCc2ccccc2)Cc2ccccc2)CC1 (stereo not given) | inactive | –
Cc1ccc(N(CC(O)COCc2ccco2)S(=O)(=O)c2ccc(C)cc2)cc1 (stereo not given) | inactive | –
CC(=O)N1c2ccc(S(=O)(=O)N3CCCC3)cc2CC1C(=O)Nc1cc(C)cc(C)c1 (stereo not given) | inactive | –
Cc1cccc(Nc2nc(N)c([N+](=O)[O-])c(N3CCC(C)CC3)n2)c1 | inconclusive [cytotoxic, single point] | –
CC(C)Oc1cccc(C(=O)NC(=S)Nc2cccc(C(F)(F)F)c2)c1 | inconclusive [cytotoxic, single point] | –
O=C(CSc1nc2ccccc2c(=O)n1CCCN1CCOCC1)NCCc1ccccc1 | inactive | –
CCOc1ccc(OCc2cccc(C(=O)N(CC)CC)c2)cc1 | inconclusive [cytotoxic, single point] | –
COc1ccc(CCCNC(=O)C2Cc3c(-c4ccccc4)ccnc3O2)cc1 (stereo not given) | active: 8.2 µM | –
C[C@]12C[C@H](O)[C@H]3[C@@H](CCC4=CC(=O)CC[C@@]43C)[C@@H]1CC[C@@H]2C(=O)CO | inconclusive [rising, single point] | –
COc1ccc2[nH]c3c(NCCCOC(C)C)ncnc3c2c1 | inconclusive [cytotoxic, single point] | –
CC1CCCCN1C(=O)c1cccc(NC2=C(Cl)C(=O)N(Cc3ccccc3)C2=O)c1 (stereo not given) | inconclusive [cytotoxic, single point] | –
Cc1cccc(NCc2cc(Cl)ccc2O)n1 | inconclusive [cytotoxic, single point] | –
Cc1c(N(C(=O)CNC(=O)c2ccccc2)C2(C(=O)NC3CCCCC3)CCCCC2)c(=O)n(-c2ccccc2)n1C | – | inconclusive: 31.9%
COc1ccc2c(c1)C(c1ccc([N+](=O)[O-])cc1)=NNC(c1ccco1)=N2 | inconclusive [cytotoxic, single point] | –
Cc1nc2ccccc2c(=O)n1NC(=O)c1cc(Br)ccc1Cl | inactive | –
CCOc1ccc(/C=N/NC(=O)c2cc3c(OC)cc(OC)cc3[nH]2)cc1OC | inconclusive [cytotoxic, single point] | –

SMILES | Potency | activity, negative = less viability
CCc1cc(C(=O)N=Nc2c(O)[nH]c3ccc([N+](=O)[O-])cc23)c2ccccc2n1 | inconclusive [cytotoxic, single point] | –
Cc1ccc(C(NC(=O)C2CCN(CCOc3ccccc3)CC2)c2ccccn2)cc1 (stereo not given) | inactive | –
CC(C)C[C@@H](COCc1ccc(C(F)(F)F)cc1)N1CCN(C(=O)c2ccc(C(F)(F)F)cc2)CCC1=O | inconclusive [cytotoxic, single point] | –
N#C/C(=C\C=C\c1ccccc1)C(=O)NCc1ccco1 | inconclusive [cytotoxic, partial curve] | –
O=C(Nc1cc(Cl)cc(Cl)c1)N[C@@H]1CC[C@@H](CCNS(=O)(=O)c2cccc(F)c2)O[C@@H]1CO | active: 18.4 µM | –
COc1ccc(Cc2c(-c3ccc(OC)c(OC)c3)nc3c(C)cc(Br)cn23)c(C)c1 | inconclusive [cytotoxic, single point] | –
Cc1ccc(NNC(=O)c2ccno2)cc1C | inconclusive [cytotoxic, partial curve] | –
COc1cc(CCN(C(=O)c2cc3ccccc3[nH]2)C(C)c2nc3ccccc3[nH]2)cc(OC)c1 (stereo not given) | inconclusive [cytotoxic, single point] | –
Cc1cccc(NC(=O)COn2nnc3ccc(S(C)(=O)=O)cc32)c1 | inconclusive [cytotoxic, single point] | –
COc1cccc(-n2c(N)c(C(=O)Nc3c(C)n(C)n(-c4ccccc4)c3=O)c3nc4ccccc4nc32)c1 | – | inconclusive: -12% [cytotoxic]
O=C(O)CCSc1nc2ccccc2n1-c1ccccc1 | inconclusive [rising, full curve, poor fit] | –
O=S1(=O)CC(N2CC=CC2)CN1Cc1cn(Cc2ccccc2)nn1 (stereo not given) | inactive | –
COc1ccc(C(=O)Nc2cccc(-c3cc4ccccc4oc3=O)c2)cc1[N+](=O)[O-] | active: 16.4 µM | –
CC1=C(C(=O)N(C(C)C)C(C)C)CC(CC(=O)NCc2cccc3ccccc23)C(=O)N1Cc1ccccc1 (stereo not given) | inactive | –
CC(=O)c1c(C)[nH]c(C(=O)Nc2cccc(C(F)(F)F)c2)c1C | inconclusive [cytotoxic, single point] | –
C=C(C)COc1ccc(-c2[nH]ncc2Oc2cccc(OC)c2)c(O)c1 | active: 23.1 µM | –
CC(C)(C)c1ccc(C2CC2C(=O)N/N=C\c2ccc[nH]2)cc1 (stereo not given) | active: 2.59 µM | –
CCC(=O)N1CCC1(C)C(=O)Nc1ccc2nc(C)ccc2c1 (stereo not given) | inconclusive [rising, single point] | –
Cc1csc(NC(=O)c2cccn2C)n1 | inconclusive [cytotoxic, single point] | –
C=C(C)COc1ccc(-c2[nH]ncc2-c2ccccc2)c(O)c1 | inconclusive [cytotoxic, single point] | –
Cn1nc(C(F)(F)F)c(-c2ccccc2)c1N | inactive | –
CC1=CC2C(C(O)CC3(C)C2CC(C)C32OCOC23COCO3)C2(C)C/C(=C\O)C(=O)C=C12 (stereo not given) | active: 18.4 µM | –
CNc1cncc(-c2ccc(OC)cc2OC)n1 | inconclusive [rising, single point] | –
CCc1nn(CCCC(=O)NCc2ccc(OC(C)C)cc2)c(=O)c2cc3occc3n12 | active: 11.6 µM | –

SMILES | Potency | activity, negative = less viability
Cc1c(C(C)C)c(=O)n(-c2ccc(S(=O)(=O)NCc3ccccc3)cc2)n1C | inconclusive [cytotoxic, partial curve] | –
Oc1c(CN2CCCC(C(F)(F)F)C2)cc(Cl)c2ccccc12 (stereo not given) | inconclusive [cytotoxic, single point] | –
Cc1cc(-c2nn(-c3ccccc3F)cc2CN2CCN(c3ccncc3)CC2)c(C)s1 | active: 20.6 µM | –
CCN(C(=O)c1ccc2c(c1)OCO2)C1CCS(=O)(=O)C1 (stereo not given) | inactive | –
Cc1cc(NC(=O)CSc2nc3ccsc3c(=O)n2CCCC(=O)NCCc2ccccc2)no1 | inconclusive [cytotoxic, single point] | –
Cc1nc(NC(=O)c2ccc(F)cc2)sc1C(=O)Nc1ccc2c(c1)CCC2 | – | inconclusive: -39.3% [cytotoxic]
COc1ccc(C(=O)Nc2ccccc2C(=O)NCc2cccnc2)cc1 | inconclusive [cytotoxic, single point] | –
CCOc1ccccc1CNC(=O)C1CCCN(c2nnc(C)c3c(C)n(-c4ccccc4)nc23)C1 (stereo not given) | active: 20.6 µM | –
Cc1ccc(NC(=S)NNC(=O)c2ccccc2OC(F)F)cc1 | inconclusive [cytotoxic, partial curve] | –
O=C(CNC1CCCCC1)Nc1ccc(S(=O)(=O)N2CCCCC2)cc1 | inconclusive [cytotoxic, partial curve] | –
COc1cc(C2C3=C(CCCC3=O)Nc3[nH]n(-c4ccccc4)c(=O)c32)ccc1OC(C)=O (stereo not given) | inactive | –
CC1COc2c3ccccc3nn21 (stereo not given) | inactive | –
COc1ccccc1-n1cc(-c2ccccc2)[nH]c1=S | inactive | –
CC1(C(=O)NCc2ccccc2)Cc2c(-c3cccc(C(N)=O)c3)ccnc2O1 (stereo not given) | inconclusive [cytotoxic, full curve] | –
Cc1ccn2c(NC3CCCCC3)c(C)nc2c1 | inconclusive [cytotoxic, single point] | –
NC(=O)c1sc(-c2ccsc2)cc1NS(=O)(=O)c1ccc(C(F)(F)F)cc1 | inactive | –
NC(=O)c1nsc(C(=O)N(c2ccccc2F)C(C(=O)NCc2ccc(F)cc2)c2ccc(O)cc2)c1N (stereo not given) | active: 16.4 µM | –
CC/C(C)=N/Nc1cccc([N+](=O)[O-])c1 | inconclusive [cytotoxic, partial curve] | –
N=c1c(C(=O)NC2CCCCC2)cc2c(=O)n3ccccc3nc2n1Cc1ccco1 | inactive | –
c1coc(-c2nc(-c3ccco3)c(-c3ccco3)nc2-c2ccco2)c1 | inconclusive [cytotoxic, single point] | –
Cc1ccc(CN2CCSc3ccc(C(=O)NC4CCN(Cc5ccccc5)CC4)cc32)cc1 | inactive | –
COc1cc2c(cc1OC)C(C)N(C(=O)c1cc(Cl)nc(Cl)c1)CC2 (stereo not given) | inconclusive [cytotoxic, full curve] | –
